# Assay results taken from the RNAGym collection of RNA variant scans (doi:10.7554/elife.90254).
# Read counts are not given, so values of variants with three or more changes are uncertain.
# B1: LINE1-full (parent)
# chain: UACGUAGGUGGUUUUCCCCUGAUAGUGCUAAGGGGGCCUGGAAGUUUGGACUGGGCAGAGCUCAACACAGCGUGGCAAAGUGGCUGUGGCUAGACUGCCUCUCUGGAUUCCUCGUCACUCAGCAGGGCAUCUCUGAGAGAAAUGCC
# Variants of: B1
# Assay: self-cleavage, relative activity (ratio to wild type); higher = more cleavage; in vitro, sequencing; the parent is a self-cleaving ribozyme
row,Variant,self-cleavage
1,A57U U109C A117U,0.15
2,G58A C118U A141G,0.04
3,U62C A64U A124U,0.04
4,U62A A64G A78G A136G,0.2
5,A59U U112A U134C,0.58
6,A57U U62C G106A,0.03
7,A57U A64C G80A A129C,0.15
8,U62A U112C A121G G125C,0
9,A57G A78G A138G A141G,0.74
10,A59G U87C A107G C128U,0
11,G55C A64G A142G,0.1
12,C61U C71U C84G U132A,0.02
13,A57G U62C U130C U134C,0
14,G55C G72C U102C,0.11
15,G54A A124U U134C,0.7
16,A59G U96A A138G,0.07
17,A59G U102C A136G,0.06
18,A57U A77U A138G,0.34
19,C61G C128U A138G A141G,0.01
20,A59G U73A G114A,0.06
21,A57G A59G C63A U115C A136G,0.06
22,A57U G60A U87A C116U A117G A124G U143A,0.01
23,A57U A117G G144A,0.27
24,C56U U108A U119C A141G,0.1

row,Variant,self-cleavage
1,A59G G75A A77G U81A A124U,0.16
2,G54A U96A A121G A136G U143A,0.03
3,C61A U96C A107G A136G,0.05
4,A57U U91C A117U,0.08
5,G60A G72A A77G,0.01
6,U62A G72A A121U,0.02
7,A57G C68U U134C,0.14
8,A57G G80U A107G,0.63
9,A57C G82A U100C,0.07
10,A57G A136G A142G,1.46
11,U62A A121U A124G U132A,0
12,A57G A141G A142G,1.75
13,A59G A64U C71A U73C,0.02
14,C61A U73A U109A A140G,0.02
15,A57G A67G U115C A117U,0.48
16,A59U U87A A107G,0.05
17,C61G U62C A141U,0.04
18,G54U A65G A67C U100C,0.06
19,A59U G72A U112C U134A,0.57
20,A59G U62C U96C U130C,0
21,A57C A64G U112A G125A,0.23
22,A57U A67G U119C,0
23,A59G A64G A67G A69U C111U U132A,0.48
24,A57G U119C A142G,2.15

row,Variant,self-cleavage
1,A59C A121G A138G,1.31
2,A59G U102C U104C A124U,1.06
3,A57G U130C A136G,1.15
4,A59G U130C U143A,0.11
5,A59U A121U U134C,0.68
6,A59G A65G A117G,0
7,G54U A59C A136U A138U,0.59
8,A57U G60U A107G U115A A129G,0.02
9,G54U A79G U108G U132A,0.55
10,A59C U100A U104G,1.9
11,G54U U87A U100C,0.08
12,A57C C63A A129C,0.07
13,A57G U108C A136U G137A,0.3
14,A59G U81A U108C U143A,0
15,A59G U87G C120U,0.02
16,U62A A78U C99A U104A U119A,0.01
17,A57G A59G G105A A121G,0
18,G55U A94G A138G U143A,0.1
19,A57G U73C G126A,1.26
20,A57U A69G A141G,0.1
21,G54A U81C U96C U112A U130C A136G,0
22,A57G A59G G80A,0.04
23,A57U U91A U104C A140G,0.05
24,C61U A79G U119A,0.04

row,Variant,self-cleavage
1,A57U G89A A129G,0.02
2,A59G A107U A129G,0.17
3,A57G C76U U130C,1.8
4,A59G G122U U134C,0.09
5,G58A C63A A65G C66U G83A,0.04
6,A59G U81A U87C A124U U132C,0
7,G54A G127A A138G A141G,0.78
8,A57U A65G U104A U143A,0
9,A59G A69G A129U,0.08
10,A57U U73A C120U,0.11
11,A59U A64U C68U U115C,0.07
12,A57G A107G G144A,1.18
13,A57U U62C A64U U100A A141G A142G,0.05
14,G55A G75U U87C U109G A124G A138G,0
15,A57G A94U A121G,1.48
16,A57G U130C U134A,0
17,G58A A77U U134C,0.06
18,G55A A79G A117U,0.47
19,A57C G58A U62A A78U,0.04
20,U62A U91C U102C U115C,0
21,U62A U112C U115G,0
22,G60U C71U A107U,0.03
23,A59U U109A C131U,1.16
24,A59G A117U U134C,0.18

row,Variant,self-cleavage
1,G55U A78G C113U,0.09
2,U62A A78U U81C A136G,0
3,U62A A65G C90A U100G,0.08
4,A57U A67G U104C,0
5,G54A U85C C146U,0.06
6,A57U A59G C84U A117G,0.09
7,A57U U73C U132G,0
8,A57U A136G A140G,0.34
9,G55A A59G A129G,0.04
10,A57G C71U U85C U115C A138G,0.29
11,A57G A59G G72A A92G G114A,0.07
12,G58U A67G A124G,0.1
13,G53U A77U U130C,1.84
14,C56U U108C A136G,0.24
15,A57G A64U A69G,0.1
16,A57U U73A U102A U132C A138U,0
17,A57G A117G U143A,0.77
18,U62A A121U U134C,0.05
19,U62A U132A U134A,0.04
20,A59U A136G A141G,1.24
21,A57C A77G C98U,0.03
22,G58U A129G A142G,0.02
23,A57G U102C A129G,0.72
24,A59G A78G U143C,0

row,Variant,self-cleavage
1,G54A A64G C131G,0.2
2,G53U A79G U104A U130C,1.68
3,A59U C63U U115A A140G,0.11
4,G60U A65G G83A,0.05
5,A57G U81A C128U,1.21
6,U62C A64G C110A A129G,0.1
7,A59G A79G U96C,0
8,A59G C101A U112C,0.08
9,C61A A67G U143C,0.15
10,U62A G82A U102C,0.03
11,A57G U73C A136U A142G,1.84
12,A57G A78G C113U,0.48
13,G58A U73C A77G A79U U100C A129G A141U,0
14,G55A A69G U73A A138U,0.05
15,A59G U104C A117G G137U,0
16,A59U U62C A79G U102A,0
17,A57C U108C U132C,0
18,A59G U73A U81A,0.11
19,U62C A65G U85C A94U,0
20,A57G A77U A94G A129G,0
21,G58A A92G U130A A138G,0
22,A57U A67G G144A,0.11
23,A57G A69U A136U,0.08
24,A59G G83A U112C,0

row,Variant,self-cleavage
1,G60A A77G U130A,0.01
2,A57G U102C G135A,0.33
3,A59G U62C U73A U119C,0.42
4,A57G U73A U143C,0.42
5,A57G U87A U109C,0.04
6,U62A U73C A117U U134C,0.1
7,A59G A67G A140G,0.54
8,A59U U73C A78G U112C,1.41
9,A57G U96C A138G,0
10,C56U U62A U119A,0.05
11,A57G A136G A140G,0.76
12,A57U U108C A141G,0.14
13,A59U U85A A124G,0.07
14,A57G U96A U109A,0.22
15,U62A U87C A121U,0.03
16,A57U A65G A94U,0.05
17,G58A A92U A107G,0.03
18,A57U A65C U134A,0.03
19,U62A A77U U119C U130C,0.07
20,A57G U85A A141G A142U,0.07
21,A59G A64U U73C G93U,0.04
22,G55A U73A U112A A136G,0.19
23,A57G C66U C145U,0.02
